The whole screen tested about 310,000 compounds, of which about 14,000 (4.5%) showed an effect of 50% or more. The effect is printed as a negative number. Some of the results follow.
biological target: human ether-à-go-go-related gene (hERG) potassium channel (human, UniProt Q12809); assay: primary screen, population patch clamp on CHO cells stably expressing hERG
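Note: peak tail current of the secondary pulse compared with the same well before compound.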

Chain of human ether-à-go-go-related gene (hERG) potassium channel (Q12809 whole entry, looked up): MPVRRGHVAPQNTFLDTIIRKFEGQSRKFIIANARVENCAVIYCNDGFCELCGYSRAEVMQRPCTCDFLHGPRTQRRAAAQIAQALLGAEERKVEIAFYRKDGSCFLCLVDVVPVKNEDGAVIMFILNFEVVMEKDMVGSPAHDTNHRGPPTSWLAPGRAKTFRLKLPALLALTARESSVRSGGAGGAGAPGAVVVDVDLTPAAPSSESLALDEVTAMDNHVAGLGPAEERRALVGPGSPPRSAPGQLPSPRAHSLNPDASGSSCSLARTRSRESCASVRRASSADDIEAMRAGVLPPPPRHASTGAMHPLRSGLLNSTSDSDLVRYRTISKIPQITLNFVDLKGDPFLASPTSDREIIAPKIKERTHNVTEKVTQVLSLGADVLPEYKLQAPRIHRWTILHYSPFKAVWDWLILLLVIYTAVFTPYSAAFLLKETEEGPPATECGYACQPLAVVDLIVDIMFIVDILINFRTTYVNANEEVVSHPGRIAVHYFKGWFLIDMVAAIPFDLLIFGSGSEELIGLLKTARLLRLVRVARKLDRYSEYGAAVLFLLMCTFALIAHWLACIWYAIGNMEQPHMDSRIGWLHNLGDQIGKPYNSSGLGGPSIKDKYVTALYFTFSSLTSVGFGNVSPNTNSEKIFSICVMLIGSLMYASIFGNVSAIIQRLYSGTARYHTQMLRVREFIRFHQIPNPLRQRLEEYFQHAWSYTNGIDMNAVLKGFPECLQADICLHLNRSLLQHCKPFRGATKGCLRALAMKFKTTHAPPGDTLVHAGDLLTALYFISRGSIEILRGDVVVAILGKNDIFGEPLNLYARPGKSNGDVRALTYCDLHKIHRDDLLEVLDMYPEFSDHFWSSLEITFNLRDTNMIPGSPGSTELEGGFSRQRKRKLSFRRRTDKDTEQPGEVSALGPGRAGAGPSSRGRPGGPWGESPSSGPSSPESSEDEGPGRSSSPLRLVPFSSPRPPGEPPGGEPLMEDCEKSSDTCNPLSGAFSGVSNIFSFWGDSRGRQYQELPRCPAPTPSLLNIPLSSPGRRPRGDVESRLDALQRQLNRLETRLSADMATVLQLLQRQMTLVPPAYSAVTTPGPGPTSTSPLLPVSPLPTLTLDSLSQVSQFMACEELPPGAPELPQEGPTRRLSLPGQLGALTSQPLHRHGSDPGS

| SMILES | hERG current change (%, negative = inhibition) at 10uM [%] |
| --- | --- |
| COc1ccccc1NC(=S)NNC(=O)c1nn(C)c(C)c1Cl | 7.8 |
| Cc1cc(C[n+]2ncsc2N)c2ncccc2c1.[Br-] | -33.8 |
| CCN(CC(=O)Nc1c(F)cccc1F)C(=O)CCCc1c[nH]c2ccccc12 | 9.04 |
| O=C(COC(=O)[C@H](Cc1ccccc1)NC(=O)c1cccs1)NC1CCCCC1 | -13.1 |
| CCOC(=O)c1ccc(NC(=O)[C@@H](NC(N)=O)C(C)C)cc1 | -2.24 |
| CC(C)(C)c1ccc(-c2nnc(NC(=O)c3ccccc3)s2)cc1 | -13.6 |
| O=C(CCCSc1nnnn1-c1cccc2ccccc12)c1ccc(F)cc1 | -7.29 |
| NS(=O)(=O)c1ccc(CNS(=O)(=O)Cc2ccc(Cl)cc2)cc1 | 8.77 |
| O=[N+]([O-])c1ccc(N2CCNCC2)cc1Sc1ccccn1 | 30.3 |
| COc1ccc2c(c1)N(C(=O)CSc1n[nH]c(C)n1)C(C)(C)C=C2C | -9.81 |
| O=C(CN1CCN(c2cccc(Cl)c2)CC1)Nc1ccc(S(=O)(=O)N2CCOCC2)cc1 | 6.01 |
| CCOc1ccc(NC(=S)NC2CC3CCC(C2)N3Cc2ccco2)cc1 (stereo not drawn) | -25.6 |
| Cn1nc(C(C)(C)C)cc1C(=O)NN1CCOCC1 | 18 |
| CCSc1nnc(NC(=O)NC(C)(C(F)(F)F)C(F)(F)F)s1 | 4.5 |
| CC(=O)c1cccc(NC(=S)NC(=O)c2ccccc2)c1 | 1.98 |
| COc1ccc(Nc2cc(C)nc(-n3nc(C)cc3C)n2)cc1 | -16.7 |
| COc1cc(CNCCC2CCOC(C)(C)C2)ccc1O.Cl (stereo not drawn) | 5.47 |
| COc1ccc(N2CCN(C(=O)C(=O)c3c(C)[nH]c4ccccc34)CC2)cc1 | -14.1 |
| COc1ccccc1NC(=O)NNC(=O)c1ccc2c(c1)NC(=O)C(C)(C)O2 | 17.8 |

| SMILES | hERG current change (%, negative = inhibition) at 10uM [%] |
| --- | --- |
| COc1ccccc1NC(=O)NC(N)=O | 2.19 |
| COc1ccc(N2CCN(Cc3cc4c(cc3O)CCC4)CC2)cc1 | -12.4 |
| CC1CCN(CC(O)COc2ccc(C(=O)c3ccccc3)cc2)CC1 (stereo not drawn) | -67.4 |
| CN1C(=O)C(Cc2ccsc2)C(=O)N(C)C1=O | 4.98 |
| CCO[C@H]1OC(C(=O)N2CCCCCCC2)=C[C@@H](c2csc3ccccc23)[C@@H]1CCCO | -23.3 |
| NC(N)=NS(=O)(=O)c1ccc(NC(=S)NC(=O)/C=C/c2ccc(F)cc2)cc1 | 10.9 |
| COc1ccc(/C(O)=C2/C(=O)C(=O)N(CCN(C)C)C2c2ccc(C)cc2)cc1Cl (stereo not drawn) | 5.16 |
| CC(C)N1CCc2c(sc(NC(=O)c3ccco3)c2C(N)=O)C1.Cl | -6.82 |
| CCn1nnnc1SCC(=O)Nc1cc(C)on1 | 1.97 |
| O=[N+]([O-])c1cc(S(=O)(=O)N2CCCCC2)ccc1NCCCN1CCOCC1 | -47.8 |
| Cc1ccc2c(c1)c1c(n2C)-c2[nH]ncc2CC1 | 4.45 |
| Cc1nc(N2CCN(c3ccccn3)CC2)c2c(C)c(C(=O)Nc3ccccc3F)sc2n1 | -55.3 |
| C#CCOCCOCCOCCNc1nc(N2CCN(C(=O)[C@H]([C@@H](C)CC)n3cc(CCCC[NH3+])nn3)CC2)nc(N2CCN(C(=O)[C@H](CCCC[NH3+])n3cc(CC(C)O)nn3)CC2)n1.[Cl-] (stereo partly drawn) | 14.3 |
| CC(=O)c1ccc(OC(=O)COc2ccccc2Cl)cc1 | 20.4 |
| Cc1ccccc1CN1CCCC(C(=O)Nc2ccc(-c3ccn[nH]3)cc2)C1 (stereo not drawn) | 8.89 |
| CCOCCCn1c(=N)c(S(=O)(=O)c2ccccc2)cc2c(=O)n3cc(C)ccc3nc21 | -19.1 |
| C=CCNC(=O)Nc1ccc(Cl)cn1 | -5.41 |
| CCN1CCCc2cc(CN(CCN3CCOCC3)C(=S)Nc3cc(F)cc(F)c3)ccc21 | -1.04 |
| CCc1cccc(OCCN2CCCC2)c1 | -12.7 |

| SMILES | hERG current change (%, negative = inhibition) at 10uM [%] |
| --- | --- |
| C=CCn1c(COc2cccc3ccc(C)nc23)nnc1SCC(N)=O | -0.0884 |
| CC(=O)Nc1ccc(S(=O)(=O)N2CCCC3CCCCC32)cc1 (stereo not drawn) | -3.38 |
| COc1ccc(C(C)=O)cc1COC(=O)c1cc2ccccc2cc1O | 9.93 |
| O=C1OCCC1Sc1nc(-c2ccccc2)cs1 (stereo not drawn) | -7.33 |
| CC(Cl)C(=O)Nc1cc(C(C)(C)C)nn1-c1ccccc1 (stereo not drawn) | 26.7 |
| Cc1ccc(C(=O)N2CCN(c3ccc([N+](=O)[O-])cc3-n3cccc3)CC2)cc1 | -56.4 |
| Cc1ccc(C(=O)Nc2ccc3ncccc3c2)cc1 | -0.506 |
| CN(C)CC1CCCCC1=O.Cl (stereo not drawn) | 15.6 |
| Cl.Cn1cccc1CNCc1ccccc1Cl | 0.741 |
| CCCCNc1c(-c2cccc(-c3cc(C(C)=O)cs3)c2)nc2ccc(C)cn12.O=C(O)C(F)(F)F | -8.02 |
| Oc1c(Br)cc(Br)cc1C=Nc1cccnc1 | -11.1 |
| CCn1c(SCc2ccc(OC)c(F)c2)nc2ccccc2c1=O | 23.4 |
| COc1cc(OC)c(C(=O)N2CCCC2)cc1OC | 3.36 |
| CC(C)Cc1ccc(C(C)C(=O)Nc2ccccc2O)cc1 (stereo not drawn) | -5.17 |
| COc1ccccc1N1CC(C(=O)Nc2ccc3c(c2)OCO3)CC1=O (stereo not drawn) | 13.6 |
| O=C1c2ccccc2NC(c2cccc(F)c2)N1Cc1ccccc1 (stereo not drawn) | -71.1 |
| Cc1c(Cl)cccc1NC(=O)[C@@H](NC(=O)c1ccccc1Cl)C(C)C | 11.7 |
| CCOC(=O)c1cnc(-n2nc(C)cc2C)nc1N(C)C | -4.36 |
| CCOC(=O)N1CCN(C(=O)c2cccc(S(=O)(=O)Nc3ccc(OC)cc3)c2)CC1 | -11.9 |

— PMC4336329 (PLoS ONE, 2015)
